Source: PubChem BioAssay AID1452 (National Center for Advancing Translational Sciences (NCATS), 2008)
Among all 150,000 compounds or so, about 190 (0.13%) were called active. Not shown: some 2% with an inconclusive outcome. Calls come from the whole dose curve; as a rule, active = well fitted inhibition curve with a large enough effect; inconclusive = small, poorly fitted or top-dose-only effect; inactive = flat fitted curve, though single readings scatter. The entries are a selection whose mix differs from that of the whole data set.

Biological target: Polyunsaturated fatty acid lipoxygenase ALOX12 (Homo sapiens) (UniProt P18054)
Chain of UniProt P18054 (P18054 whole entry, looked up): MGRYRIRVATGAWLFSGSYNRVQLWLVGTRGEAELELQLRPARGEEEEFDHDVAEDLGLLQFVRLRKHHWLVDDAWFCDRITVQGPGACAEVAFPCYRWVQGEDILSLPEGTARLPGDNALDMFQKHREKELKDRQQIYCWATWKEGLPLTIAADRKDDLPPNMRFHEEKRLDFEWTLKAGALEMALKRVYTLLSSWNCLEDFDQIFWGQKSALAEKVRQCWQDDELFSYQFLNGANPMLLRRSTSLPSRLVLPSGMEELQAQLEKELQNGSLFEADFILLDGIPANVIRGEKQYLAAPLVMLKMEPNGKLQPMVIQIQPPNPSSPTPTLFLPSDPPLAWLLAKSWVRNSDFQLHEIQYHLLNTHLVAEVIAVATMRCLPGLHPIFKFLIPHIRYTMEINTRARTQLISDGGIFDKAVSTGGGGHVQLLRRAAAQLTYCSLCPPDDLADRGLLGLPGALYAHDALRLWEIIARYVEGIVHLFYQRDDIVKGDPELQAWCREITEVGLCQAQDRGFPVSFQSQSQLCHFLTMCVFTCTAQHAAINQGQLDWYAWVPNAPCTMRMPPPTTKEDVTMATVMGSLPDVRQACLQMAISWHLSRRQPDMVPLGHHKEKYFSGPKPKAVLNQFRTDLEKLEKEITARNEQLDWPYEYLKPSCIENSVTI
Experiment: qHTS Assay for Inhibitors of 12-hLO (12-human lipoxygenase); note: nearly all actives have a fitted effect of over 55% in size
Conditions: purified 12-hLO, xylenol orange hydroperoxide absorbance; series mostly up to 57.1 µM; activity change, negative = inhibition: at the top concentration
Description: Assay Provider: Holman, T.R., University of California, Santa Cruz Screening Center PI: Austin, C.P. Screening Center: NIH Chemical Genomics Center [NCGC] Human lipoxygenase 12hLO is a member of the closely related lipoxygenase family of enzymes which catalyze the site-specific oxidation of arachidonic acid to various hormone precursor molecules and as such is a candidate for drug development in a variety of disease areas, such as cancer and inflammation. Inhibition of 12hLO activity was screened by utilizing arachidonic acid as a substrate. The extent of hydroperoxide product formation was measured by a secondary chromogenic reaction in which xylenol orange (XO, Sigma-Aldrich, cat. number 39,818-7) reacts with the ferric ions produced from the reaction between the hydroperoxide and ferrous ions. The Fe(III)-XO complex is characterized with red-shifted absorbance at 560 nm. A purified preparation of human 12hLO was supplied by Professor Ted Holman, University of California, Santa Cruz.
Assay Protocol: Buffer: 25 mM Hepes pH 7.0, 0.01% Triton X-100. Reagents/Controls: Buffer in columns 3 and 4 as negative control (no enzyme). Substrate solution: 40 uM arachidonic acid (Sigma-Aldrich, St. Louis, MO) final concentration dispensed throughout the plate. Enzyme: 150 nM 12hLO final concentration in columns 1, 2, 5-48. Column 1 is neutral (100% activity). Column 2 contained pin-transferred titration of NDGA (nordihidroguaiaretic acid, Sigma-Aldrich, N 5023, top concentration 20 mM in DMSO, then 1:3 dilution in duplicate). (Dilution factor: 23 nL into 4 uL.) Chromogenic detection reagent (divalent iron/xylenol orange, Fe-XO): 200 uM xylenol orange plus 300 uM ferrous ammonium sulfate prepared freshly in 50 mM sulfuric acid. Assay Steps: Three uL of enzyme were dispensed to 1536-well Greiner black clear bottom plates. Compounds and controls (23 nL) were transferred via Kalypsys PinTool. The plates were incubated for 15 min at room temperature, and then 1 uL of substrate solution was added to start the reaction. After room temperature incubation for 30 minutes, 4 uL of Fe-XO solution was added to each well and the plates were incubated for 30 min. The absorbance at 405 and 573 nm were measured using ViewLux (Perkin-Elmer) High-throughput CCD imager and absorbance protocol settings. The 573-to-405 absorbance ratio was used to compute reaction progress.
% is set by controls: 0 for no effect and ±100 for the full control effect; potency is the fitted concentration of half-maximal effect.

Structure (SMILES) | Potency | activity change, negative = inhibition
Oc1ccc(-c2nc(-c3ccc(O)c(O)c3)cs2)cc1 | active: 5.01 µM | –
O=C(NC1CCCCC1)C1CC(=O)N(c2ccc(Cl)cc2)C1 (stereo unspecified) | – | inactive: -2.2%
CC[C@@H]1Cc2cc(O)ccc2C2=C1c1ccc(O)cc1C[C@H]2CC | – | inactive: -24.1%
Cc1nc(N=Nc2cc(S(=O)(=O)O)c3cc([N+](=O)[O-])cc(S(=O)(=O)O)c3c2)c(COP(=O)(O)O)c(C=O)c1O | – | inactive: -8.17%
CCN(CC)CCN1C(=O)c2ccccc2NC1c1ccccc1F (stereo unspecified) | – | inactive: 31%
CC(=O)C1=C(O)C(=O)N(Cc2ccco2)C1c1ccc(F)cc1 (stereo unspecified) | – | inactive: 31.7%
Cc1ccc(NC(=S)/N=C(\N)Nc2nc(C)c3ccccc3n2)cc1C | active: 5.62 µM | –
Cc1ccc(N2C(=O)/C(=C\c3ccco3)SC2=S)cc1 | active: 7.94 µM | –
O=c1[nH][nH]c(C(F)(F)F)c1C=NCc1cccc(Cl)c1 | – | inactive: 31.3%
CCOC(=O)C(C)Oc1ccccc1C1NC(=O)NC(C)=C1C(=O)Nc1ccc(C)c(C)c1 (stereo unspecified) | – | inactive: 17%
N[C@H](Cc1cc(I)c(Oc2ccc(O)c(I)c2)c(I)c1)C(=O)O | – | inactive: -6.18% [at 25.6 µM]
O=c1c(C=NCCCn2ccnc2)c(-c2ccccc2)[nH]n1-c1nc2ccccc2s1 | – | inactive: -5.02%
CN1CCC[C@H]1c1cccnc1 | – | inactive: 1.82%
COc1ccc(/C=C\C(=O)Nc2ccccc2C(=O)O)cc1OC | – | inactive: -4.09%
CCOc1nc(-c2ccc(C)cc2)ccc1-c1noc(-c2cccnc2)n1 | – | inactive: 44%
CC(C)N(CCC(=O)c1ccc2ccccc2c1)Cc1ccccc1 | – | inactive: -25%
Cc1ccc(C2=N/C(=C/c3cccs3)C(=O)N2Nc2ccccc2)cc1 | – | inactive: -18%
O=c1[nH]c(=O)n([C@@H]2C[C@H](O)[C@H](CO)O2)cc1C(F)(F)F | – | inactive: -5.6% [at 25.6 µM]
O=c1c2ccccc2sn1-c1ccccc1 | active: 12.6 µM | –

Structure (SMILES) | Potency | activity change, negative = inhibition
Cc1ccccc1C(=O)/C(C#N)=N/Nc1c(C)n(C)n(-c2ccccc2)c1=O | – | inactive: -17.9%
CSCC[C@H](NC(=O)c1ccc(Cl)c(S(=O)(=O)N2CCCC2)c1)c1nc2ccccc2[nH]1 | active: 17.8 µM | –
NC[C@H]1O[C@@H](n2cnc3c(=O)[nH]c(N)nc32)[C@@H](O)[C@@H]1O | – | inactive: -7.58% [at 11.4 µM]
CC(C)CN(CC(C)C)C(=O)C12CCC(C)(C(=O)O1)C2(C)C (stereo unspecified) | – | inactive: 30.2%
CN(Cc1cnc2nc(N)nc(N)c2n1)c1ccc(C(=O)NC(CCC(=O)O)C(=O)O)cc1 (stereo unspecified) | – | inactive: 0.867%
Cc1ccc(S(=O)(=O)c2cc3c(=O)n4ccccc4nc3n(CC3CCCO3)c2=N)cc1C (stereo unspecified) | – | inactive: 35.8%
Nc1nc(N)c2nc(-c3ccccc3)c(N)nc2n1 | inactive | –
N[C@@H](Cc1ccc(O)c(O)c1)C(=O)O | inactive | –
CC1=C(C(=O)Nc2ccccc2)C(c2ccc3c(c2)OCO3)C2=C(CCCC2=O)N1 (stereo unspecified) | – | inactive: 33.1%
O=C(c1ccc(F)cc1)C1CCN(CCn2c(=O)[nH]c3ccccc3c2=O)CC1 | inactive | –
CCN(CC)C(C)CN1c2ccccc2Sc2ccccc21 (stereo unspecified) | active: 12.6 µM | –
O=C(O)C1=CC(=C(c2ccc(O)c(C(=O)O)c2)c2ccc(O)c(C(=O)O)c2)C=CC1=O | – | inactive: -13.1%
CCCn1c2c(c(O)c(C(=O)NCCCN(CC)CC)c1=O)CCCC2 | – | inactive: 33%
COc1cccc(N(C(=O)CS(=O)CC(=O)Nc2ccc(F)cc2)C(C(=O)NC2CCCCC2)c2cccs2)c1 (stereo unspecified) | – | inactive: 11.6%
CCC(CO)NCc1ccc(OC2CCCC2)cc1 (stereo unspecified) | – | inactive: 35.4%
Cc1ccc(S(=O)(=O)N2CCC(C(=O)NCC3CCCO3)CC2)cc1 (stereo unspecified) | – | inactive: -8.94%
COc1cc([C@H]2Oc3cc([C@H]4Oc5cc(O)cc(O)c5C(=O)[C@@H]4O)ccc3O[C@@H]2CO)ccc1O | – | inactive: 4.96%
CNCC(O)c1ccc(O)c(O)c1 (stereo unspecified) | – | inactive: -2.37%
Cn1c2ccccc2c2nnc(SCc3ccc4nonc4c3)nc21 | – | inactive: 36.5%

Structure (SMILES) | Potency | activity change, negative = inhibition
O=C(O)C1=CCCN(CCON=C(c2ccccc2)c2ccccc2)C1 | – | inactive: -1.23%
N#CC1=C2SCN(c3ccccc3)CN2C(=O)CC1c1c(Cl)cccc1Cl (stereo unspecified) | active: 28.2 µM | –
CN1Cc2c(N)cccc2C(c2ccccc2)C1 (stereo unspecified) | inactive | –
CN(C)c1ccc(C(=C2C=CC(=[N+](C)C)C=C2)c2ccc(N(C)C)cc2)cc1 | – | inactive: -27.8%
CN(Cc1cnc2nc(N)nc(N)c2n1)c1ccc(C(=O)N[C@@H](CCC(=O)O)C(=O)O)cc1 | – | inactive: 53.4%
COC(=O)c1ccc(C2C(Oc3ccc(OC)cc3)C(=O)N2CCc2ccc(OC)c(OC)c2)cc1 (stereo unspecified) | – | inactive: 28%
Cc1ccc(S(=O)(=O)NC(=O)NN2CCCCCC2)cc1 | – | inactive: -0.352% [at 25.6 µM]
CC(Oc1ccc(Cl)cc1Cl)C(=O)NC1=NN(c2ccccc2)C(=O)C1 (stereo unspecified) | active: 8.91 µM | –
CCN(c1ccccc1)S(=O)(=O)c1ccc(NC(=S)NC(=O)c2cccs2)cc1 | active: 25.1 µM | –
c1ccc([C@@H]2CN3CCSC3=N2)cc1 | inactive | –
CCCCCCCCCCCC1=C(O)C(=O)C=C(O)C1=O | active: 8.91 µM | –
Cc1ccc(C(=O)Nc2cccc(C(=O)NCc3ccco3)c2)cc1 | – | inactive: 34.7%
CC/C(=C(\c1ccccc1)c1ccc(OCCN(C)C)cc1)c1ccccc1 | inactive | –
CC1(C)NC(=O)N(c2ccc([N+](=O)[O-])c(C(F)(F)F)c2)C1=O | – | inactive: 1.67% [at 25.6 µM]
CC(NC(=O)CN1C(=O)COc2ccccc21)c1ccccc1 (stereo unspecified) | – | inactive: 9.04%
Nc1cc(-c2ccncc2)c[nH]c1=O | inactive | –
CCCCCCCCCCNC(=O)C(=O)Nc1ccccn1 | – | inactive: 32.9%
CCOc1ccc2c(c1)C(C)=CC(C)(C)N2 | – | inactive: -21.2%
